According to publication PMC4076210, “Discovery of Novel AKT Inhibitors with Enhanced Anti-Tumor Effects in Combination with the MEK Inhibitor” (PLoS ONE, 2014):
Like-named read-outs stand apart in the source and are kept apart here.

How the values were obtained:
CHK2(R145W)(h) = target: T1, CHK2(R145W)(h) (Homo sapiens, UniProt O96017, R145W); assay: Kinase panel; type: biochemical
T1 construct: purchased Millipore KinaseProfiler

Pim-1(h) = target: T2, Pim-1(h) (Homo sapiens, UniProt P11309); assay: Kinase panel; type: biochemical
T2 construct: purchased Millipore KinaseProfiler
T2 sequence (P11309 whole entry): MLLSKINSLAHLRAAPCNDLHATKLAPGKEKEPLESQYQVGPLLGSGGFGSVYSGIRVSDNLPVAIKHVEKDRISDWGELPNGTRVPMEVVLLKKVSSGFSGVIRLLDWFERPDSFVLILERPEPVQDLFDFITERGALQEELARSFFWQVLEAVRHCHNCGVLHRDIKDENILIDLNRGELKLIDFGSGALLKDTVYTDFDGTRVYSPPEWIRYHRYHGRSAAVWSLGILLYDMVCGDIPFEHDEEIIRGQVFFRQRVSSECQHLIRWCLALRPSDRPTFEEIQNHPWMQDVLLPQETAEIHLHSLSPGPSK

MAPK2(m) = target: T3, MAPK2(m) (Mus musculus, UniProt P63085); assay: Kinase panel; type: biochemical
T3 construct: purchased Millipore KinaseProfiler

MINK(h) = target: T4, MINK(h) (Homo sapiens, UniProt Q8N4C8); assay: Kinase panel; type: biochemical
T4 construct: purchased Millipore KinaseProfiler
T4 sequence (Q8N4C8 whole entry): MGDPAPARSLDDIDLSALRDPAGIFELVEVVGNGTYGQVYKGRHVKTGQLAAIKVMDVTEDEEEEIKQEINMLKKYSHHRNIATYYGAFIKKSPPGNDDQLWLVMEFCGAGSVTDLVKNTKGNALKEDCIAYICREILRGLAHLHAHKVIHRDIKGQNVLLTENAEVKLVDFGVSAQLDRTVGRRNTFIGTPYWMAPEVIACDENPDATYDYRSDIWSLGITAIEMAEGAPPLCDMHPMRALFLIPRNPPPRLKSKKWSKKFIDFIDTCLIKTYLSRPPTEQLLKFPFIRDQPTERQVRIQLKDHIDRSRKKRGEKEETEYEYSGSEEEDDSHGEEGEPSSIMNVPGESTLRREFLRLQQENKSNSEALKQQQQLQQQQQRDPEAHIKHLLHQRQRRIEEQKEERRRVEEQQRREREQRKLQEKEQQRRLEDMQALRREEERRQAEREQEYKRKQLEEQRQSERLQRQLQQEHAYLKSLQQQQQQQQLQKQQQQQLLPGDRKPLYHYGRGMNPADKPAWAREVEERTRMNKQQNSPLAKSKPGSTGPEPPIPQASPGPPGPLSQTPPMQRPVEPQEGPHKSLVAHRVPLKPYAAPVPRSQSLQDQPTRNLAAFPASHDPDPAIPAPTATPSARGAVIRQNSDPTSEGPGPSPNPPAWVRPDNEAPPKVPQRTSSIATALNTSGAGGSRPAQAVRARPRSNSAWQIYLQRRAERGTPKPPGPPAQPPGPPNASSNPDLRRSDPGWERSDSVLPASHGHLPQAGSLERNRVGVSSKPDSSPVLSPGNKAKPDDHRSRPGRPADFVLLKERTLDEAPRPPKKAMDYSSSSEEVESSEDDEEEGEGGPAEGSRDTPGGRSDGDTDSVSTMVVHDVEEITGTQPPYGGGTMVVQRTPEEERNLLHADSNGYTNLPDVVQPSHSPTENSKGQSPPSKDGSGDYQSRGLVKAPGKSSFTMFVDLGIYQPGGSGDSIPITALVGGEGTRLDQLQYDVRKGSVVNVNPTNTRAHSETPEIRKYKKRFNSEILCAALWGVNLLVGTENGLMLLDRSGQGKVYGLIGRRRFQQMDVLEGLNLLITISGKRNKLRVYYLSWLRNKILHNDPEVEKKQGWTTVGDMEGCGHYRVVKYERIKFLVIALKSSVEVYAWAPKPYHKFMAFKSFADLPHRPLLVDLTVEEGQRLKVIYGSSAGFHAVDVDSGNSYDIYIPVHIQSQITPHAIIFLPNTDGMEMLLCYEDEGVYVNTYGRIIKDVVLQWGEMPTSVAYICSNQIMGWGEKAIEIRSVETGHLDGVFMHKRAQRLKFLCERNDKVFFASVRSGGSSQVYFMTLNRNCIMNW

[1] = system: phospho-PRAS40 in BT474 tumor xenografts; assay: In vivo time course pharmacodynamic assay (phospho-PRAS40 ELISA); design: species or system mouse
Experimental: The pharmacodynamic studies were carried out in SCID mice bearing BT474 tumor xenografts. […] Protein lysates were prepared and the phospho-PRAS40 ELISA was performed on tumor samples according to the methods described in the main text. Concentration of the test compounds was analysed by HPLC/MS/MS analysis.

PKCδ = PKCδ (Homo sapiens, UniProt Q05655); assay: Kinase IC50 assay; type: biochemical
UniProt Q05655, sequence (Q05655 whole entry): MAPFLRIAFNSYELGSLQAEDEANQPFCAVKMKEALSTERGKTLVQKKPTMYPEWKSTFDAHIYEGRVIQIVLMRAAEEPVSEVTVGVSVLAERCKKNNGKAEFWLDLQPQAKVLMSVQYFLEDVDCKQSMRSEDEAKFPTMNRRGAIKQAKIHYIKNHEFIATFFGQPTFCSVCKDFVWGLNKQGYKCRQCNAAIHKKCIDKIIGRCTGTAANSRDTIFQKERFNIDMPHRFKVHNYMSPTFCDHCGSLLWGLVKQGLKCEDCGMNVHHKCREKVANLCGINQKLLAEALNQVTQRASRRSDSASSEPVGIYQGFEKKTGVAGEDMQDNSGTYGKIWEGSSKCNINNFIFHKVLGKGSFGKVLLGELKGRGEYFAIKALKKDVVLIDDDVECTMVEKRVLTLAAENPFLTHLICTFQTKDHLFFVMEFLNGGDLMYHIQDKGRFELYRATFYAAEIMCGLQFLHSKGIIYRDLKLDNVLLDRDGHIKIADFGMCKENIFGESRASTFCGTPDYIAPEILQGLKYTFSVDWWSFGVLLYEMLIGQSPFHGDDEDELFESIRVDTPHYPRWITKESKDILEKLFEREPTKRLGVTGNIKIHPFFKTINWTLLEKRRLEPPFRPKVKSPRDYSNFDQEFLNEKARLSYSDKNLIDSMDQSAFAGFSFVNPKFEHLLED

Lyn(m) = target: T5, Lyn(m) (Mus musculus, UniProt P25911); assay: Kinase panel; type: biochemical
T5 construct: purchased Millipore KinaseProfiler

Rsk4(h) = target: T6, Rsk4(h) (Homo sapiens, UniProt Q9UK32); assay: Kinase panel; type: biochemical
T6 construct: purchased Millipore KinaseProfiler
T6 sequence (Q9UK32 whole entry): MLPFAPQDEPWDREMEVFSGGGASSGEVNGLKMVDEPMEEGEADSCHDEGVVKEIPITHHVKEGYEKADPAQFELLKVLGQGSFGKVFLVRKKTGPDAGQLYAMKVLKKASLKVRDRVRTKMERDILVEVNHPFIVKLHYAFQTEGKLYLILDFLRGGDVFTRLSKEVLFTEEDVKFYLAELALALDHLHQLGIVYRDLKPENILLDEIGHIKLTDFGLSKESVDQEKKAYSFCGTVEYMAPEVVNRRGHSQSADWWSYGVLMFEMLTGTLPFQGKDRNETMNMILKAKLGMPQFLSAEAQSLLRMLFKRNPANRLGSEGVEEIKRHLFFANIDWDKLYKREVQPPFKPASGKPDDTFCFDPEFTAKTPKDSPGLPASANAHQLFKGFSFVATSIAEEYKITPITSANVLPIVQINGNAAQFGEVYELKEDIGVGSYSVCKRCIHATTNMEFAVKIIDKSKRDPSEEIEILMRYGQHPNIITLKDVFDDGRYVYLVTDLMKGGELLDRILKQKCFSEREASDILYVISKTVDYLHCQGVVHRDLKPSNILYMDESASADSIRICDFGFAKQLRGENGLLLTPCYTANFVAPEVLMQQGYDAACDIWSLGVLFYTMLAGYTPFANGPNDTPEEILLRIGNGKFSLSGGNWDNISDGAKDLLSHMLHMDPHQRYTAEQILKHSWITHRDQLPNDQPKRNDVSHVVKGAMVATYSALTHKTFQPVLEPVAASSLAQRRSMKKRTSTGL

SKOV3 tumor xenografts = assay: Xenograft tumor growth inhibition; type: in vivo, mouse
Experimental: (§1) Tumors were initiated by injecting either cells (SKOV3, CAPAN-2 and HPAC) or a tumor fragments (BT474) subcutaneously into 6–8 week female athymic nude (SKOV3) and SCID (all others) mice. Once tumors reached between 120 and 300 mm^3, mice were randomized according to tumor volume into groups of n = 7–10 mice per treatment. GSK2110183 and GSK2141795 were administered daily at various doses by oral gavage. In combination experiments, GSK1120212 was also administered daily by oral gavage. Tumor volumes and body weight were measured twice weekly, tumor volume was measured with calipers and calculated using equation: […]. Results are represented as percent inhibition on completion of dosing = 100 x [1- average growth of drug-treated population/average growth of vehicle-treated control population].

BT474 tumor xenografts = assay: Xenograft tumor growth inhibition; type: in vivo, mouse; conditions: for maximal inhibition of BT474 tumor growth: 30 mg/kg GSK2110183 and 100 mg/kg GSK2141795 over 3 weeks (as printed in discussion)
Experimental: as §1

ROCK-II(h) = target: T7, ROCK-II(h) (Homo sapiens, UniProt O75116); assay: Kinase panel; type: biochemical
T7 construct: purchased Millipore KinaseProfiler
T7 sequence (O75116 whole entry): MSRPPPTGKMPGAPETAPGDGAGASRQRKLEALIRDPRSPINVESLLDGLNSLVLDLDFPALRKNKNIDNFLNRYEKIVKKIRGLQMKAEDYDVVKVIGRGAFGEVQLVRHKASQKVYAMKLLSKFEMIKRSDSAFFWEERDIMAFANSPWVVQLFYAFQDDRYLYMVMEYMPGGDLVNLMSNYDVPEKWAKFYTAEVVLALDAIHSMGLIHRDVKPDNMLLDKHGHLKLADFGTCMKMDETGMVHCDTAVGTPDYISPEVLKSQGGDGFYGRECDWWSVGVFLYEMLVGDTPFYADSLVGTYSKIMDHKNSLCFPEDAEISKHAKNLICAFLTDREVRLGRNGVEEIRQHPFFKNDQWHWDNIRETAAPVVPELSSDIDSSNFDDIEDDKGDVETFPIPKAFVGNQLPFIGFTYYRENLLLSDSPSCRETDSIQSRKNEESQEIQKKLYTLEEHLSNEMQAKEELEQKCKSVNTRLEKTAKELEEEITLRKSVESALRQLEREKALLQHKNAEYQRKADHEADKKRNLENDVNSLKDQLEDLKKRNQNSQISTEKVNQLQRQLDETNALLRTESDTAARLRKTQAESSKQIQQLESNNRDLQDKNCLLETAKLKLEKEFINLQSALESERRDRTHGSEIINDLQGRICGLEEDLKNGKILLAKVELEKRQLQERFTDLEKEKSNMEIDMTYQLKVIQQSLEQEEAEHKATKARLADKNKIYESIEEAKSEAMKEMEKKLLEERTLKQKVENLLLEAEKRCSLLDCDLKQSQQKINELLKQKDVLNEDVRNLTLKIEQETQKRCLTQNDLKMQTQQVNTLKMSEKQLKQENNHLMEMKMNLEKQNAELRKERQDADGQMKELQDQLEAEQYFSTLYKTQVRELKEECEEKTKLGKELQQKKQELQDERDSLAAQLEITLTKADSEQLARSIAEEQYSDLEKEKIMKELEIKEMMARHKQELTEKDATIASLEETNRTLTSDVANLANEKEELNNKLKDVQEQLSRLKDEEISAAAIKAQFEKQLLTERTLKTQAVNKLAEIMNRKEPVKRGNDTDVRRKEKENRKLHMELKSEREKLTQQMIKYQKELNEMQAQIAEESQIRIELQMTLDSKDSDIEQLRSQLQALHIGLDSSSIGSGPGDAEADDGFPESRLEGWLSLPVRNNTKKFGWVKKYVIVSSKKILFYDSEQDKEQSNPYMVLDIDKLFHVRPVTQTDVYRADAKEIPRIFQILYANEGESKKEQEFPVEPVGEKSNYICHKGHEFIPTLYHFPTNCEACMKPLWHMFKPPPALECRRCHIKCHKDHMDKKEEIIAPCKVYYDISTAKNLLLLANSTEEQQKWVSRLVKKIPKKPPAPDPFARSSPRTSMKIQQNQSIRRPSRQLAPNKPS

DCAMKL2(h) = target: T8, DCAMKL2(h) (Homo sapiens, UniProt Q8N568); assay: Kinase panel; type: biochemical
T8 construct: purchased Millipore KinaseProfiler
T8 sequence (Q8N568 1-766): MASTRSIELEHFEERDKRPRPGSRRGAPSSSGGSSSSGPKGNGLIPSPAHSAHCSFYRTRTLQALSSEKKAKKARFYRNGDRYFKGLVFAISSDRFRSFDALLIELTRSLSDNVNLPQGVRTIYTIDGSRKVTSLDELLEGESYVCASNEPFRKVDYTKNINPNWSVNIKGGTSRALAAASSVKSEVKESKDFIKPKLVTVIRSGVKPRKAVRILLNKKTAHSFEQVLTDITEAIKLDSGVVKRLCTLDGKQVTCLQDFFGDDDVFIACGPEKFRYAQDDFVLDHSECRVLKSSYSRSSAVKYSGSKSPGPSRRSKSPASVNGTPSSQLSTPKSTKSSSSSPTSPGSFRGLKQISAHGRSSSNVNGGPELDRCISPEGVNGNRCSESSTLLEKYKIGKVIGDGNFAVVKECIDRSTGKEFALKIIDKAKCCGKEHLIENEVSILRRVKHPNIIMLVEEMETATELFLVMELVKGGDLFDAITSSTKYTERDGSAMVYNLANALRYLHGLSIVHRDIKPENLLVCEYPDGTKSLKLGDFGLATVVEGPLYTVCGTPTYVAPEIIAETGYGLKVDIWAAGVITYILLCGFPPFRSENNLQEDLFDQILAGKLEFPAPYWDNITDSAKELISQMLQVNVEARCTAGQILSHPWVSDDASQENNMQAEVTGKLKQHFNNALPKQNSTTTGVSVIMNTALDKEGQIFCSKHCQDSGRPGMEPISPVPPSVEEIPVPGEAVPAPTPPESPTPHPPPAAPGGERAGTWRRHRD

BTK(R28H)(h) = target: T9, BTK(R28H)(h) (Homo sapiens, UniProt Q06187, R28H); assay: Kinase panel; type: biochemical
T9 construct: purchased Millipore KinaseProfiler

CK1γ2(h) = target: T10, CK1γ2(h) (Homo sapiens, UniProt P78368); assay: Kinase panel; type: biochemical
T10 construct: purchased Millipore KinaseProfiler
T10 sequence (P78368 whole entry): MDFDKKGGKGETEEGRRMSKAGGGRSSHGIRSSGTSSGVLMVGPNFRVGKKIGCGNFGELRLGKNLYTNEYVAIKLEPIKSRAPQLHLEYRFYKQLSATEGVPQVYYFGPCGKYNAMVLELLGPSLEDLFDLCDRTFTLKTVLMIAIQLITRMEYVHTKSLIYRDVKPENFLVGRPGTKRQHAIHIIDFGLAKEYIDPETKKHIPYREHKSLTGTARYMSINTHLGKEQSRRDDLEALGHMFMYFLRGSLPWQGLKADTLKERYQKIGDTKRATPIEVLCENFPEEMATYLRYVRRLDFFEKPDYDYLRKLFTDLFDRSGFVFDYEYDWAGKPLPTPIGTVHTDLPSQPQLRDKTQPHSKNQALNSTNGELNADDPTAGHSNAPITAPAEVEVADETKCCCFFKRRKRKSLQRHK

[2] = 10 mg/kg oral daily, 20-21 days

## Cn1ncc(Cl)c1-c1cc(C(=O)N[C@H](CN)Cc2cccc(F)c2)sc1Cl [GSK2110183]
CHK2(R145W)(h)
  inhibition at 0.5 µM: 42%
  inhibition at 10 µM: 101%
Pim-1(h)
  inhibition at 0.5 µM: -8%
  inhibition at 10 µM: 93%
MAPK2(m)
  inhibition at 0.5 µM: 6%
  inhibition at 10 µM: 12%
MINK(h)
  inhibition at 0.5 µM: 6%
  inhibition at 10 µM: 8%
[1]; 100 mg/kg QDx7
  time for phospho-PRAS40 levels to return to baseline: ≤ 48 h
[1]; 100 mg/kg QDx7, sustained for 24 h
  inhibition of phospho-PRAS40, time course: 60%
PKCδ
  IC50: 1000 nM
Lyn(m)
  inhibition at 0.5 µM: -2%
  inhibition at 10 µM: 20%
Rsk4(h)
  inhibition at 0.5 µM: 34%
  inhibition at 10 µM: 71%
SKOV3 tumor xenografts; 10 mg/kg QD (QDx21)
  tumor growth inhibition (TGI): 23%
SKOV3 tumor xenografts; 100 mg/kg QD (QDx21)
  tumor growth inhibition (TGI): 97%
BT474 tumor xenografts; [2]
  tumor growth inhibition (TGI): 8%
BT474 tumor xenografts
  maximal inhibition of BT474 tumor growth: 61%
BT474 tumor xenografts; 10, 30 or 100 mg/kg, after 5 days of dosing, recovered
  body weight loss: 1–3%
ROCK-II(h)
  inhibition at 0.5 µM: 76%
  inhibition at 10 µM: 96%
DCAMKL2(h)
  inhibition at 0.5 µM: 14%
  inhibition at 10 µM: 61%
BTK(R28H)(h)
  inhibition at 0.5 µM: -10%
  inhibition at 10 µM: 0%
CK1γ2(h)
  inhibition at 0.5 µM: -2%
  inhibition at 10 µM: 41%

## Cn1ncc(Cl)c1-c1cc(C(=O)N[C@H](CN)Cc2ccc(F)c(F)c2)oc1Cl [GSK2141795]
CHK2(R145W)(h); 0.5 µM, read-out: % Inhibition
  inhibition at 0.5 µM: 56%
CHK2(R145W)(h); 10 µM, read-out: % Inhibition
  inhibition at 10 µM: 90%
Pim-1(h); 0.5 µM, read-out: % Inhibition
  inhibition at 0.5 µM: 15%
Pim-1(h); 10 µM, read-out: % Inhibition
  inhibition at 10 µM: 47%
MAPK2(m); 0.5 µM, read-out: % Inhibition
  inhibition at 0.5 µM: 1%
MAPK2(m); 10 µM, read-out: % Inhibition
  inhibition at 10 µM: 47%
MINK(h); 0.5 µM, read-out: % Inhibition
  inhibition at 0.5 µM: -5%
MINK(h); 10 µM, read-out: % Inhibition
  inhibition at 10 µM: 3%
[1]; 30 mg/kg QDx7
  time for phospho-PRAS40 levels to return to baseline: ≤ 48 h
[1]; 30 mg/kg QDx7, maintained for 8 h
  inhibition of phospho-PRAS40, time course: 60%
PKCδ
  IC50: 69 nM
Lyn(m); 0.5 µM, read-out: % Inhibition
  inhibition at 0.5 µM: 8%
Lyn(m); 10 µM, read-out: % Inhibition
  inhibition at 10 µM: 44%
Rsk4(h); 0.5 µM, read-out: % Inhibition
  inhibition at 0.5 µM: 18%
Rsk4(h); 10 µM, read-out: % Inhibition
  inhibition at 10 µM: 65%
SKOV3 tumor xenografts; 10 mg/kg QD (QDx21)
  tumor growth inhibition (TGI): 73%
SKOV3 tumor xenografts; 20 mg/kg QD (QDx21)
  tumor growth inhibition (TGI): 85%
SKOV3 tumor xenografts; 30 mg/kg GSK2110183 and 100 mg/kg GSK2141795 (as printed in discussion)
  TGI, SKOV3 tumor xenograft: 93%
SKOV3 tumor xenografts; 30 mg/kg QD (QDx21)
  tumor growth inhibition (TGI): 93%
BT474 tumor xenografts; [2]
  tumor growth inhibition (TGI): 28%
BT474 tumor xenografts; 20 mg/kg oral daily, 20 days (QDx21)
  tumor growth inhibition (TGI): 57%
BT474 tumor xenografts
  maximal inhibition of BT474 tumor growth: 98%
BT474 tumor xenografts; 30 mg/kg oral daily, 20-21 days
  tumor growth inhibition (TGI): 98%
BT474 tumor xenografts; 10, 20 and 30 mg/kg, day 6 of dosing, recovered by end of study
  body weight loss: 3–8%
ROCK-II(h); 0.5 µM, read-out: % Inhibition
  inhibition at 0.5 µM: 70%
ROCK-II(h); 10 µM, read-out: % Inhibition
  inhibition at 10 µM: 95%
DCAMKL2(h); 0.5 µM, read-out: % Inhibition
  inhibition at 0.5 µM: 29%
DCAMKL2(h); 10 µM, read-out: % Inhibition
  inhibition at 10 µM: 81%
BTK(R28H)(h); 0.5 µM, read-out: % Inhibition
  inhibition at 0.5 µM: 2%
BTK(R28H)(h); 10 µM, read-out: % Inhibition
  inhibition at 10 µM: -5%
CK1γ2(h); 0.5 µM, read-out: % Inhibition
  inhibition at 0.5 µM: 5%
CK1γ2(h); 10 µM, read-out: % Inhibition
  inhibition at 10 µM: 64%
